Some of the results follow.

The test system of this test is T1, C. trachomatis L2/434/Bu expressing GFP (CTL2-GFP).
T1 construct: L2/434/Bu GFP intracellular growth in HeLa cells
Details: species or system HeLa; C. trachomatis total inclusion area by high-content imaging, normalised to DMSO. The note with it: total inclusion area; 28.5 h, 10 µM; inhibitor. In outline:
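Bulk GFP and resorufin signals were read first. Wells were then fixed, stained with Hoechst and imaged to detect GFP inclusions and host nuclei. MICs followed the previously described calculation.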
On to `Oc1nc(O)c2c3c(n(CCn4ccnc4)c2n1)CCCC3` [CBK024380B], for which the “% of control remaining” value worked out at 75.2899.
To `Cc1nn(C)cc1S(=O)(=O)N1CCCC(c2cccc(Cc3ccc(Cl)cc3)n2)C1` (centres unmarked) [CBK286506] belongs 60.5472; to `COc1ccccc1CNc1ncnc2[nH]ncc12` [CBK288100], 58.6112; to `CCCCOc1ccc(Oc2ncc(C(F)(F)F)cc2Cl)cc1` [CBK161629], 110.48.
On to `C(=N\c1cccc2c(/N=C/c3c[nH]c4ccccc34)cccc12)/c1c[nH]c2ccccc12` [CBK260887], for which the “% of control remaining” value came out at 85.0889.
For the compound `COc1ccc2[nH]cc(CCNC(=O)c3ccccn3)c2c1` [CBK115866], the “% of control remaining” value is on record as 103.343.
`COCc1cccc(Nc2ncnc3c2cnn3CCC#N)c1` [CBK305983]: the “% of control remaining” value is given as 59.8376.
For the compound `Cn1cc(C(=O)CCC(=O)NC2CCCN(c3ncccn3)C2)cn1` (centres unmarked) [CBK305480], the “% of control remaining” value was 52.6024.
Under `Cc1csc(C(Cc2cccs2)NC(=O)CN2CCCC2=O)n1` (centres unmarked) [CBK284691] stands 84.5827.
Regarding `N#CC(NS(=O)(=O)c1ccc(OC(F)(F)F)cc1)c1ccccc1` (centres unmarked) [CBK043714], the “% of control remaining” value is recorded as 117.949.
`Nc1nc(C2CC(O)C2)cc(N2CCC(Oc3ccccc3Cl)CC2)n1` (centres unmarked) [CBK307392]: the “% of control remaining” value is 56.341.
Under `O=C(CC1C(=O)N(Cc2ccccc2)C(=S)N1Cc1ccccc1)Nc1ccccc1` (centres unmarked) [CBK263871] stands 94.9651.
On to `Cc1c(C(=O)N2CCCC(c3cc4ncccc4[nH]3)C2)cnn1C` (centres unmarked) [CBK283420], for which the “% of control remaining” value stood at 110.307.
Under `COc1ccccc1CN(C)C(C)C(=O)Nc1sccc1C(N)=O` (centres unmarked) [CBK306466] stands 62.6314; under `Cc1nn(C)c(Cl)c1S(=O)(=O)Nc1cccc(-c2cnco2)c1` [CBK067107], 56.2421.
To `COC(=O)C1CC2CCC1(C)CC21NC(=O)c2ccccc2N1` (centres unmarked) [CBK284440] belongs 40.4927; to `Cc1ccccc1OC(C)C(=O)NCCCN1CCOCC1` (centres unmarked) [CBK268628], 93.3032; to `COc1ccccc1CNC(=O)CCn1ccc2ccncc21` [CBK282229], 104.366.
To `c1ccc2nc(N3CCCC3)c(OCc3ccsc3)nc2c1` [CBK115819] belongs 109.739.
As for `COc1ccc(C)cc1S(=O)(=O)n1ccc2c(CN3CCC(N)CC3)cccc21` [CBK113312T], the “% of control remaining” value came to 11.7813.
Turning to `CCNC(=O)c1ccc(-c2ccc(OC(F)(F)F)cc2)nc1` [CBK156230], the “% of control remaining” value is on record as 106.835.
To `O=C(Nc1cccnc1)C1c2ccccc2Oc2ccccc21` [CBK263129] belongs 102.353; to `c1ccc(Oc2cccc(OCCCCN3CCNCC3)c2)cc1` [CBK266027G], 120.226.

The record behind these values is article PMC12040169 (PLOS Biology, 2025).
